From PubChem BioAssay AID1030 (National Center for Advancing Translational Sciences (NCATS), 2008)
The whole screen tested about 220,000 compounds, of which about 16,000 (7.3%) were called active. This list was built around the results that the source calls inconclusive (neither active nor inactive); the mix of calls is not that of the screen. Calls follow the shape of the dose curve; as a rule, active = well fitted inhibition curve with a large enough effect (not every such curve was filed as active); inconclusive = small, poorly fitted or top-dose-only effect, or another doubt; inactive = no such curve, though single readings can be large or run the other way. No potency is given beside an inconclusive call; the fits are too rough.
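For activity, negative = inhibition in this document: plate controls were no enzyme wells and a reference inhibitor.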
Potency is read from the fitted curve at half-maximal effect; tags tell the direction and shape of the fitted curve.

Each compound was assayed against Aldehyde dehydrogenase 1A1 (Homo sapiens) (UniProt P00352) (assay: qHTS Assay for Inhibitors of Aldehyde Dehydrogenase 1 (ALDH1A1)). Settings: Purified ALDH1A1, NADH fluorescence, propionaldehyde substrate; series mostly up to 75.3 µM; activity, negative = inhibition: at the top concentration.
Chain of UniProt P00352 (P00352 whole entry, looked up): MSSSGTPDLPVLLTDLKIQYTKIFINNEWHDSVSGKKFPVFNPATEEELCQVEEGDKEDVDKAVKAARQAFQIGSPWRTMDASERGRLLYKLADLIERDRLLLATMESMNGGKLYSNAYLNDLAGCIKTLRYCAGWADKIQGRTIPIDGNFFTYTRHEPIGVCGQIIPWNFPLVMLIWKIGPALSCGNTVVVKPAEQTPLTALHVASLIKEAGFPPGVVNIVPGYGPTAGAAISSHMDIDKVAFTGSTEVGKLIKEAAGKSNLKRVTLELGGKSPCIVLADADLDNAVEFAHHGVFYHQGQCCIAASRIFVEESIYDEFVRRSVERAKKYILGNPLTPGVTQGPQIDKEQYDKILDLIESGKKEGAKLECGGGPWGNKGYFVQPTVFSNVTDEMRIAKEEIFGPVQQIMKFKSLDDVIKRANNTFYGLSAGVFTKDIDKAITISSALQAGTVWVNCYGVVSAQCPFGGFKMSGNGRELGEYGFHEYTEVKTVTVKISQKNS
Fc1ccccc1NC(=S)NNc1ncc(C(F)(F)F)cc1Cl was tested, and the Potency was active: 2.24 µM. For Cn1c(=O)c(CCc2ccccc2)nc2cnc(Oc3ccccc3)nc21, the Potency was active: 8.91 µM. With O=C1c2cccc3c([N+](=O)[O-])ccc(c23)C(=O)N1c1ccc(Cl)cn1 the “activity, negative = inhibition” value was inactive: -7.85%. CCOC(=O)Nc1ccc(C(=O)NCC2CCCO2)cc1 (stereo not drawn) was tested, and the “activity, negative = inhibition” value was inactive: -0.047%. With CC1Cn2c(CCc3ccccc3)nnc2S1 (stereo not drawn) the Potency was inconclusive [inhibitor, single point]. Cc1cc(C(=O)N=Nc2c(O)n(C(C)C)c3ccccc23)n[nH]1 was tested, and the Potency was inconclusive [inhibitor, single point]. In the case of CC(C)CC(=O)Nc1cccc(NC(=O)c2ccccc2Cl)c1, the “activity, negative = inhibition” value is reported as inactive: -14.5%. For COC(=O)c1ccccc1NC(=O)c1cn(-c2ccc(C)c(C)c2)c(=O)c2ccccc12, the Potency was inconclusive [inhibitor, single point]. In the case of COc1ccc(/C=C2\N=C(C)N(c3ccc(C(=O)O)cc3)C2=O)cc1OC, the “activity, negative = inhibition” value is reported as inactive: 1.91%. With CC(C)=N/N=C(\c1cccc([N+](=O)[O-])c1)C12CN3CN(CN(C3)C1)C2 the Potency was inconclusive [inhibitor, single point]. In the case of CC(C)OC(=O)CN1C(=O)C(=O)c2ccccc21, the Potency is reported as active: 0.0631 µM. In the case of Cc1ccc(NC(=O)NNC(=O)C2CCN(Cc3ccc(F)cc3Cl)CC2)cc1, the “activity, negative = inhibition” value is reported as inactive: 10.1%. In the case of Cc1cccc(-c2nnc(SCC#N)n2C)c1, the “activity, negative = inhibition” value is reported as inactive: 14.8%. In the case of O=C1CCCCCN1Cc1ccccc1, the “activity, negative = inhibition” value is reported as inactive: 4.78%. For CCC(Br)C(=O)Nc1ccc(OC)cc1 (stereo not drawn), the Potency was inconclusive [inhibitor, single point]. With Cc1cc(C(=O)COc2ccc([N+](=O)[O-])cc2)c(C)n1C1CC1 the Potency was active: 11.2 µM. For Cn1c(SCC(=O)N2CCOCC2)nc2cccnc21, the Potency was inconclusive [inhibitor, single point]. For Cc1noc(C)c1COC(=O)CCCOc1ccc(Cl)cc1Cl, the “activity, negative = inhibition” value was inactive: 14.2%. With CCOC(=O)CNC(=O)/C=C/c1ccc2c(c1)OCO2 the Potency was inconclusive [inhibitor, partial curve]. For Cc1ccc2c(c1)OC(=O)CC2c1ccccc1 (stereo not drawn), the Potency was inconclusive [inhibitor, partial curve]. For O=C(Nc1ccc2c(c1)OCO2)c1ccc(S(=O)(=O)N2CCCC2)cc1, the Potency was inconclusive [inhibitor, partial curve]. In the case of Cc1ccc(-c2nn(CC(=O)N(C)C)c(=O)c3ccccc23)cc1S(=O)(=O)N(C)C, the Potency is reported as inconclusive [inhibitor, single point]. In the case of Cc1ccccc1N/N=C/c1ccc(N2CCOCC2)cc1, the Potency is reported as active: 8.91 µM.
